Test results as given in PubChem BioAssay AID1508623 (National Center for Advancing Translational Sciences (NCATS), 2021).
About 450 (0.94%) of roughly 48,000 compounds were called active. Inconclusive results (about 19%) are left out. Calls come from the whole dose curve; as a rule, active = well fitted inhibition curve with a large enough effect; inconclusive = small, poorly fitted or top-dose-only effect; inactive = no such curve, though single readings can be large or run the other way. The list shows a part of the results.

Test: Primary qHTS for Identification of Small Molecule Inhibitors of Huntingtin Promoter Activity; note: nearly all actives have a fitted effect of over 50% in size
Conditions: HEK293 HTT promoter firefly luciferase reporter (activity 0% = vehicle and -100% = no light), 24 h; series mostly up to 57.5 µM; activity change, negative = inhibition: at the top concentration
How it was run: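 HEK293 luciferase promoter-reporter cells (2,500/well) plated 24 h, then compounds added at up to 57.5 uM final for 24 h at 37 °C. Firefly luminescence by Dual-Glo, normalized to vehicle (0%) and zero RLU (-100%).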

Activity change, negative = inhibition, inactive:
COC(=O)c1ccc(-n2nnc(-c3nc(-c4ccc5c(c4)OCO5)no3)c2C)cc1 -6.78%
CC(C)c1nc2ccc(C(=O)NCCCN3CCN(c4ccccc4F)CC3)cc2o1 -27.3%
CCN(C(=O)CN(C)S(=O)(=O)c1ccc2c(c1)c(=O)n(C)c(=O)n2C)c1ccc(OC)cc1 -11.9%
Cc1cc(Br)ccc1NC(=O)CCS(=O)(=O)c1cccc2nsnc12 -19.9%
CC(=O)NCCNc1nc2c(S(=O)(=O)c3ccc(C)c(C)c3)nnn2c2ccc(Cl)cc12 12.6%
Cc1ccc(C(C)C)c(OCC(=O)Nc2ccc(S(=O)(=O)Nc3onc(C)c3C)cc2)c1 4.23%
N#Cc1ccc(CN2C(=O)c3ccccc3Sc3ccc(C(=O)OCc4ccco4)cc32)cc1 -19%
Cc1ccc(C2c3c(oc4ccccc4c3=O)C(=O)N2c2ccc(C)cn2)cc1 (stereo unspecified) -9.11%
CCOc1ccc2nc(NC(=O)CS(=O)(=O)c3ccc(Cl)cc3)sc2c1 -20.3%
Cc1ccc(-c2nnc(C3CCN(S(=O)(=O)c4ccc(C)c(C)c4)CC3)o2)cc1 -11.6%
CCOc1ccccc1NC(=O)CN1C(=O)CC(c2ccc(OC)c(OC)c2)Sc2ccccc21 (stereo unspecified) -29.7%
Cn1c(-n2cccc2)c(-c2c(-c3ccccc3)[nH]c3c2c(=O)n(C)c(=O)n3C)c(=O)n(C)c1=O -4%
CCCCOC(=O)c1ccc(NC(=O)CSc2nc3c(c(=O)[nH]2)CCCC3)cc1 -16.1%
Cc1ccccc1CN1C(=O)c2ccccc2Sc2ccc(C(=O)NC(C)c3ccccc3)cc21 (stereo unspecified) -27.3%
CCN1CCOC(=O)C1CC(=O)Nc1cc(C)cc(C)c1 (stereo unspecified) 0%
O=C(NCc1ccc(F)cc1)c1cc2c(=O)n3ccccc3nc2s1 13%
Cc1ccc(CNC(=O)Cn2c(=O)n(-c3ccc(Cl)cc3)c(=O)c3c(C)c(C)sc32)cc1 -6.59%
COc1ccc(OC)c(/C=C(/C#N)c2nc(-c3ccc(-c4ccccc4)cc3)cs2)c1 -9.22%
Cc1cc(C)cc(NS(=O)(=O)c2ccc3[nH]cc(C(=O)N(C)Cc4ccccc4)c(=O)c3c2)c1 -5.21%
CCCCNc1nc2c(S(=O)(=O)c3ccc(C)c(C)c3)nnn2c2ccsc12 -23.9%
COc1cc(Nc2ncc3c(n2)CCN(Cc2cc(Br)cs2)C3)cc(OC)c1 -16.6%
COC(=O)c1ccccc1NC(=O)c1ccc2c(c1)CCN2S(C)(=O)=O -13.2%
Cc1cc(Nc2ccc(F)cc2)n2c(nc3ccccc32)c1C#N -23.5%
Cc1ccc(CSc2nc3c([nH]c4ccccc43)c(=O)n2C)cc1 0.365%
Cc1c(-c2nc(-c3ccccc3)no2)nnn1-c1cccc(C(F)(F)F)c1 20.7%
COc1ccccc1CNC(=O)c1ccc2c(c1)nc(C)n2-c1ccccc1OC -0.899%
Cc1nn2c(-c3ccco3)ccnc2c1-c1ccc(F)cc1 9.6%
Cc1nc2ccccn2c(=O)c1NC(=O)c1ccc(C(F)(F)F)cc1 13.9%
COc1ccc(NC(=O)c2cccn2-c2nnc(N3CCCCC3)s2)cc1Cl -35.9%
CCOc1ccccc1OCCN[C@H](C)Cc1ccc(OC)c(S(N)(=O)=O)c1 -5.17%
Cc1ccc(NC(=O)Cn2c(=O)n(CCCCC(=O)NCc3ccccc3Cl)c(=O)c3ccccc32)cc1C 2%
CCOc1ccc(NC(=O)Cn2c(C)cc3ccccc3c2=O)cc1 -8.43%
O=C(O)c1ccc(-n2c(/C=C\c3ccc(O)cc3)nc3ccccc3c2=O)cc1 -14.6%
Cc1ccc(C2=Nc3ccccc3N(CC(=O)NCc3ccc(F)cc3)C(=O)C2)cc1C 44.2%
CCOC(=O)c1ccccc1NC(=O)c1sc2ncn(Cc3cccc(F)c3)c(=O)c2c1C -9.27%
CC1=C(C(=O)Nc2cccnc2)C(c2ccc(Cl)cc2)n2nc(-c3ccccc3)nc2N1 (stereo unspecified) -18.6%
COc1ccc(OC)c(S(=O)(=O)NCc2cccn2Cc2cccc(C)c2)c1 -13.5%
COc1cn(CC(=O)Nc2cccc(C)c2C)c(CN2CCCCC2)cc1=O -17.1%
Cc1ccc(C)c(NC(=O)CSc2c3c(nc4ccc(Cl)cc24)CCCC3)c1 -11.1%
COc1ccc(C(=O)Nc2cccc(OCc3cc(=O)n4c5c(sc4n3)CCCC5)c2)cc1 -13.5%
Cn1c(=O)c2c(nc3n(-c4ccc(O)cc4)c(-c4ccc(Br)cc4)cn23)n(C)c1=O 4.58%
CCn1cc(C(=O)O)c(=O)c2cnc(N3CCCC3)nc21 3.13% [at 11.5 µM]
COc1ccc(CNC(=O)CSc2nc3ccccc3nc2Cc2ccccc2OC)cc1 -6.41%
COC(=O)c1sc(NC(=O)/C=C/c2ccc(OC)c(OC)c2)c(C(=O)OC)c1C 29.9%
COc1cccc(C(=O)c2cn(CC(=O)NCc3ccccc3)c3nc(C)ccc3c2=O)c1 -0.278%
COc1ccc(OCc2nc3c4c(-c5ccccc5)c(-c5ccccc5)oc4ncn3n2)cc1 17%
CC(C)NC(=O)CCCN1C(=O)CCn2nc(-c3cccn3C)cc21 1.39%
CCN1CCN(c2cc3c(cc2F)c(=O)c(S(=O)(=O)c2ccccc2)cn3C)CC1 -9.27%
COc1ccccc1NC(=O)CSc1nc2ccccc2c2nc(-c3ccccc3)nn12 4.94%
Cc1[nH]c2ccccc2c1C1N2CC3(C)CN1CC(C)(C2)C3=O (stereo unspecified) -0.595%
Cc1nn(C)c2c1c(C(F)(F)F)cc(=O)n2C(C)C(=O)NCc1ccc(Cl)cc1 (stereo unspecified) -4.86%
O=C(Nc1ccc(Br)cc1F)N1CCC(CN2CCCC2)CC1 -23.3%
O=S(=O)(O)CCS
Cc1cccc(CNC(=O)CSCc2cnn(-c3ccccc3)c2-n2cccc2)c1 -23.8%
CCOC(=O)c1ccc(NS(=O)(=O)c2cc(-c3onc(C)c3C)ccc2C)cc1 -19.6%
COc1cc(OC)c(C2Nc3c(C)cccc3-c3cc(C)nn32)cc1OC (stereo unspecified) -28.1% [at 11.5 µM]
CC1(C)SCCN(S(=O)(=O)c2ccc(OCC#CCO)cc2)[C@@H]1C(=O)NO 1.99%
CC1=C(c2ccc(C)cc2)S(=O)(=O)NC1=NCc1cccc(F)c1 -17%
CCN1c2ccccc2-c2nc(SCC(=O)NCc3ccc(C)cc3)ncc2S1(=O)=O -22.4%
CCOC(=O)c1ccc(NC(=O)Cn2cc(C(=O)c3ccc(CC)cc3)c(=O)c3ccc(C)nc32)cc1 -3.5%
COc1ccc(CNC(=O)c2cnc3sc(N4CCCCCC4)nn3c2=O)cc1 10.1%
